From PubChem BioAssay AID1963873 (Molecular Pharmacology Branch, DTP, NCI, 2024)
Some entries of the source have several records that differ or are many. This is not the full list of results. An entry can have further records. Results that share an entry are repeated measurements (runs, samples, wells, individuals or studies). Signs of the kind (2×) stand for listed records that agree.

Test system: 276233-004-R-J1-PDC KRAS spheroids with HUVEC/MSC, viability
Assay: Anticancer human tumor 276233-004-R-J1-PDC patient-derived colon adenocarcinoma cell line growth inhibition [KRAS2]
Conditions: for viability, T/C: stronger effect = lower value; for IC50: compound alone
Text: Multicellular complex tumor spheroid response to RAS pathway inhibitors in combination with a targeted agents in patient-derived cell lines with oncogenic KRAS variants from multiple cancer types
A high-throughput screen of multi-cell type tumor spheroids was designed to identify active combinations of targeted small molecules and KRAS pathway inhibitors. Complex spheroids include a stromal component modeled by human endothelial cells (HUVEC) and fibroblasts modeled by human mesenchymal stem cells (MSCs). The concentration ranges selected for each drug and investigational agent were based upon clinically achievable concentrations if the clinical Cmax of the agent was known.
Compounds. The drugs and investigational agents: BI-3406 (NSC825286), BAY-293 (NSC824723), batoprotafib (TNO155; NSC825523), sotorasib (AMG 510; NSC818433), MRTX1257 (NSC819558), elimusertib (BAY 1895344; NSC800525), molibresib (GSK525762; NSC774829), temuterkib (LY3214996; NSC803410), venetoclax (NSC766270), alisertib (NSC759677), olaparib (NSC753686), talazoparib (NSC767125), erdafitinib (NSC781556), ipatasertib (NSC767898), cabozantinib (NSC761068), nintedanib (NSC756659), abemaciclib (NSC768073), docetaxel (NSC628503), trametinib (NSC758246), and sapanisertib (NSC764658) were obtained from the National Cancer Institute (NCI) Developmental Therapeutics Program Chemical Repository. The FDA-approved anticancer drug set is available from the Developmental Therapeutics Program. […] The stock solutions were prepared in dimethyl sulfoxide (DMSO, Sigma-Aldrich, St. Louis, MO, cat. D2650) at 800-fold the tested concentration and stored at -70 degrees C prior to their use. All drugs and investigational agents were tested over a range starting from a high concentration at or near the clinical Cmax and decreasing in half-log increments. If the clinical Cmax for an agent had not been determined, the highest concentration tested was 10 microM.
Cell Culture. All cells were maintained in an incubator at 37 degrees C and 5% CO2 with 95% humidity. The PDC lines were cultured according to standard operating procedures established by the NCI PDMR (https://pdmr.cancer.gov/sops/default.htm). Briefly, all PDCs were thawed and cultured in Matrigel-coated flasks prepared with a working solution of 1X Ham's F-12 nutrient mix, without supplementation (Invitrogen, Waltham, MA, cat. 11765054), 100 U/mL penicillin-streptomycin (Invitrogen, cat. 15140122), and 2.5% Matrigel (Corning Inc., Corning, NY, cat. 354248) for the first three passages. All PDCs were cultured in complete DMEM/F-12 media containing advanced DMEM/F-12 (Invitrogen, cat. 12634028), 4.9% defined fetal bovine serum, heat inactivated (HyClone Laboratories Inc., Logan, UT, cat. SH30070.03HI), 389 ng/mL hydrocortisone (Sigma-Aldrich, cat. H4001), 9.7 ng/mL human EGF recombinant protein (Invitrogen, cat. PHG0313), 23.4 microg/mL adenine (Sigma-Aldrich, cat. A2786), 97.3 U/mL penicillin-streptomycin (Invitrogen, cat. 15140122), 1.9 mM L-glutamine (Invitrogen, cat. 25030081), and 9.7 microM Y-27632 dihydrochloride (Tocris Bioscience, Bristol, United Kingdom, cat. 1254). The PDCs were cultured in complete DMEM/F12 media without 9.7 microM Y-27632 dihydrochloride for at least two passages prior to the screen. The established cell line HOP-62 was cultured in RPMI 1640 medium, HEPES (Invitrogen, cat. 22400105) with 10% defined fetal bovine serum (HyClone Laboratories Inc., cat. SH30070.03) and 2 mM L-glutamine (Invitrogen, cat. 25030081). The pooled donor HUVEC were cultured in endothelial cell growth medium 2 (PromoCell, Heidelberg, Germany, cat. C-22011) and the hMSC were cultured in mesenchymal stem cell growth medium 2 (PromoCell, cat. C-28009). For all experiments, HUVEC and hMSC were used at passages </=5, while the malignant cell lines were used at passages </=15. […]
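Also: cells exposed to agents for seven days before viability read.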
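For viability, T/C in this document: 100% = DMSO vehicle control wells and lower values mean fewer viable cells.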

| Structure (SMILES) | viability, T/C (compound alone 0.0316 µM) | viability, T/C (compound alone 3.16 µM) | viability, T/C (compound alone 10 µM) | viability, T/C (compound alone 1 µM) | further results |
| --- | --- | --- | --- | --- | --- |
| O=C(c1cc(Cc2n[nH]c(=O)c3ccccc23)ccc1F)N1CCN(C(=O)C2CC2)CC1 | 103, 86.7, 107, 114, 91.9% | 97, 88.6, 119, 96, 81.3% | 85.9, 108, 77.3, 90.6, 87.6% | – | – |
| CC(=O)Nc1cccc(-n2c(=O)n(C3CC3)c(=O)c3c(Nc4ccc(I)cc4F)n(C)c(=O)c(C)c32)c1 | – | – | – | – | viability, T/C (compound alone 0.001 µM): 73, 69.6, 78.9, 98.9, 79.5% |
| C=CC(=O)N1CCN(c2nc(=O)n(-c3c(C)ccnc3C(C)C)c3nc(-c4c(O)cccc4F)c(F)cc23)C(C)C1 (stereo unspecified) | – | 84.7, 76.5, 79.7, 81.7, 94.2, 103, 74.3, 91.3, 94, 95.5, 93, 92.8, 90.1, 88.2, 75.6, 84.4, 92.2% | 72.3, 66.6, 71.5, 68.2, 82.3, 76.4, 68.6, 82.8, 73.6, 96.8, 66.7, 66.5, 82, 65.7, 69.9, 59.6, 76% | 75.9, 103, 102, 100 (2×), 74.3, 126, 109, 95, 78.9, 86.1, 89.8, 108, 79.7, 87.7, 106, 105% | viability, T/C (compound alone 0.1 µM): 94, 99.7, 101, 107, 92.6, 134, 86.9, 73.8, 98.8, 96.3, 89.3, 97.7, 97.4, 88.4, 99.6, 105, 88.3%; viability, T/C (compound alone 0.316 µM): 88.3, 87.5, 91.3 (2×), 101, 90.6, 108, 89.6, 97.3, 95.1, 81.4, 107, 111, 96.9, 87.2, 109, 104% |
| CCNC(=O)CC1N=C(c2ccc(Cl)cc2)c2cc(OC)ccc2-n2c(C)nnc21 (stereo unspecified) | – | – | 61.3, 71, 64.3, 44.2, 70.7% | – | – |
| COC(=O)c1ccc2c(C(=Nc3ccc(N(C)C(=O)CN4CCN(C)CC4)cc3)c3ccccc3)c(O)[nH]c2c1 | – | 106, 116, 90.7, 93.3, 99.6% | 92.7, 98.4, 111, 81.3, 101% | – | – |
| C=CC(=O)N1CCN(c2nc(OCC3CCCN3C)nc3c2CCN(c2cccc4cccc(C)c24)C3)CC1CC#N (stereo unspecified) | 111, 92.2, 85.8, 88.2, 85, 80.8 (2×), 78, 113, 106, 80, 109, 83.2, 101, 94.9, 102, 92% | 99.1, 52.4, 46.2, 57.5, 60.3 (2×), 56 (2×), 45.3, 53.3, 66.7, 46.9, 62.5, 75.1, 57.4, 54.9, 67.4% | – | 86.9 (2×), 83.9, 95.4, 85.3, 87.3, 88.6, 67.9, 84.5, 86.2, 103 (2×), 63.7, 86.4, 77.5, 93, 99.8% | viability, T/C (compound alone 0.1 µM): 86.2, 96.3, 78.5, 84.5, 83, 93.4, 85.6, 107 (2×), 92.9, 92.7, 80.5, 93.6, 98, 93.3, 85.7, 89.8%; viability, T/C (compound alone 0.316 µM): 98.7, 90.8 (2×), 77.6, 80.3, 62.8, 78.5, 79.5, 98.9, 102, 83.7, 63.3, 104, 81.9, 91.9, 82.5, 89.5% |
| COc1cc(Nc2ncc3c(n2)-c2ccc(Cl)cc2C(c2c(F)cccc2OC)=NC3)ccc1C(=O)O | 84.5, 98, 120, 93.2, 104% | – | 84.3, 100, 92.1, 85.2, 69.7% | – | – |
| CC(C)n1nc(-c2ccc3oc(N)nc3c2)c2c(N)ncnc21 | – | – | – | – | viability, T/C (compound alone 0.00316 µM): 69.3, 96.4, 61.5, 75.6, 67.6% |
| CC(C)NCC(C(=O)N1CCN(c2ncnc3c2C(C)CC3O)CC1)c1ccc(Cl)cc1 (stereo unspecified) | – | 75.2, 73.5, 73.8, 41.3, 81.3% | – | 71.3, 96.7, 83.3, 80.5, 67.8% | – |
| Cn1nccc1Nc1nccc(-c2cc3c(s2)C(C)(C)N(CCN2CCOCC2)C3=O)n1 | 95.2, 111 (2×), 122, 86.7% | – | – | – | IC50: 8.4 µM, > 10 µM, 8.89 µM, 8.93 µM, 5.61 µM |
| COc1cc(OC)cc(N(CCNC(C)C)c2ccc3ncc(-c4cnn(C)c4)nc3c2)c1 | – | 62.5, 76.5, 71.9, 44.1, 62.7% | 30.6, 27.2, 35.4, 0.53, 23.9% | 71.2, 79.8, 67.5, 35.3, 68.9% | IC50: 4.97 µM, 5.63 µM, 6.09 µM, 943 nM, 4.55 µM |
| Cn1ncnc1[C@H]1c2n[nH]c(=O)c3cc(F)cc(c23)N[C@@H]1c1ccc(F)cc1 | 98.3, 110, 117, 85.8, 111% | – | – | – | viability, T/C (compound alone 0.00316 µM): 80.9, 122, 102, 78.7, 97.8%; viability, T/C (compound alone 0.01 µM): 118, 97.6, 107, 96.4, 88.9% |
